Hit rate of the full screen: of about 48,000 compounds, about 1,200 (2.5%) were called active. Not shown: some 2% with an inconclusive outcome.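 Rule for the calls: active = activation of at least 60% and not above a set upper limit (about 1 call in 100 departs from these limits); inconclusive = activation of 40% to 60%, or above that upper limit; inactive = activation under 40%.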 The list shows a part of the results.
Each compound was assayed against Probable G-protein coupled receptor 32 (Homo sapiens) (UniProt O75388) (assay: qHTS for Agonists of Human Resolvin D1 Receptor DRV1). Conditions: CHO-K1 GPR32 beta-arrestin PathHunter luminescence, 90 min; at 76.9 µM; stronger effect = higher value; zero percent set by DMSO-only wells.
Chain of UniProt O75388 (O75388 whole entry, looked up, the tested form may be a part): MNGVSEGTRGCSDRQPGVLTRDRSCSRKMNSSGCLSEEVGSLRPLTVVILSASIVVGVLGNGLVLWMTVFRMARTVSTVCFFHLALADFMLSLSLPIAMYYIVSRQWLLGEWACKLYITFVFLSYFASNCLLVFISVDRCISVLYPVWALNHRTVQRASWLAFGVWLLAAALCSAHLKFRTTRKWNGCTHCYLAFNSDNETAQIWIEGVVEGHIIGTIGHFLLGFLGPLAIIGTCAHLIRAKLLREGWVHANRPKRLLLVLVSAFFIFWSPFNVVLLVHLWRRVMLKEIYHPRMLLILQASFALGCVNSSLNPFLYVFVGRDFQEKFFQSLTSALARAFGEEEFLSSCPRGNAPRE
Method in brief: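 PathHunter enzyme-fragment complementation, CHO-K1 GPR32 stable line; 2,500 cells/well, overnight attach; cpd 90 min 37 °C 5% CO2; detection reagent 1 h RT; chemiluminescence. DMSO = EC0.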

activation, active:
CC(C)c1ccc2oc3nc(N)c(C(=O)O)cc3c(=O)c2c1 104%

activation, inactive:
Cc1ccccc1C(=O)NCc1ccc2c(c1)CCN2C(=O)c1ccc(F)cc1 -12.3%
CCOC(=O)Cn1cnc2c(cnn2-c2ccc(C)c(C)c2)c1=O 22.2%
Cc1nn2c(=O)cc(COC(=O)COc3ccccc3C)nc2s1 0%
Cc1cccc(CSCc2ccc(C(=O)NCCc3ccccc3)o2)c1 34.9%
O=C(c1cc2ccccc2oc1=O)N1CCN(c2ccc(F)cc2)CC1 8.02%
Cc1cc(C)c2c(CC(=O)Nc3ccc(S(=O)(=O)N4CCCCC4)cc3)coc2c1 -16.5%
COc1ccccc1CCNC(=O)Cc1c(C)c2cc3c(C)coc3cc2oc1=O -18.7%
NC(=O)c1cc[n+](CC2=C(C(=O)O)N3C(=O)[C@@H](NC(=O)[C@@H](c4ccccc4)S(=O)(=O)[O-])[C@H]3SC2)cc1 0.31%
CCCN(CCC)S(=O)(=O)c1ccc(C(=O)Nc2cccc(-c3nc4ccccc4[nH]3)c2)cc1 -13%
CC(=O)c1ccc(NC(=O)CN(C)S(=O)(=O)c2cc3c(cc2Cl)NC(=O)CO3)cc1 -2.87%
Nc1c(-c2nc(-c3ccccc3)no2)nnn1CC(=O)Nc1cccc(F)c1 -0.865%
CCOc1cc(-c2ccc(OC(=O)c3ccc(C)cc3)c(OC)c2)cc(=O)c2c(C)oc(C)c12 -19%
CCN(CC)CCN(C(=O)c1ccco1)c1nc2cc(C)cc(C)c2s1 20.3%
Cc1ccc(NCc2cccn2-c2nnc(N3CCC(C(=O)NCCC(C)C)CC3)s2)cc1 -11%
N#Cc1c(-n2ncnc2-c2ccccc2C(F)(F)F)sc2c1CCCCC2 -12.6%
CCOC(=O)c1ccc(Nc2c(-c3cccc(O)c3)nc3nc[nH]n23)cc1 -11.9%
COc1cc(NC(=O)CNS(=O)(=O)c2cccs2)cc(OC)c1OC -3.08%
COc1cccc(C2=NS(=O)(=O)N(C)C(C(=O)Nc3ccccc3SC)=C2)c1 -24.4%
CCOc1ccc(S(=O)(=O)NCCc2csc3nc(-c4ccc(F)cc4)nn23)cc1 37.7%
Cc1ccc(C)c(Cn2c(=O)n(Cc3ccccc3)c(=O)c3c2c2cc(C)ccc2n3C)c1 20.1%
CC1CCC(NC(=O)c2ccc(CS(=O)(=O)c3cccc(C(F)(F)F)c3)o2)CC1 (stereo not drawn) 13.1%
O=C(NCc1cccs1)c1ccc(CSc2nc3ccncc3n2Cc2ccccc2)cc1 0.485%
Cc1ccc(Cl)cc1N1CCN(CCCNC(=O)C2COc3ccccc3C2)CC1 (stereo not drawn) -2.48%
CCOC(=O)c1ccc(NC(=O)Cn2c(=O)cc(C(F)(F)F)c3c(C)nn(C)c32)cc1 -11.2%
Cc1ccc(C(=O)Nc2ccc(S(=O)(=O)Nc3onc(C)c3C)cc2)cc1 -4.89%
COc1ccc(CNC(=O)Cn2c(=O)cc(C)c3c(C)nn(-c4cccc(Cl)c4C)c32)cc1 0.105%
COc1ccc(-c2cc(C(=O)Nc3cccc(O)c3)on2)cc1OC -0.959%
Fc1ccc(CSc2nc(NCc3ccccc3)c3ccccc3n2)cc1 -35.9%
O=C(Nc1ccc(Cl)cc1C(F)(F)F)c1cc(S(=O)(=O)N2CCOCC2)ccc1F -9.94%
CCOc1ccc(S(=O)(=O)n2nc(C)c(S(=O)(=O)N3CCCCC3)c2C)cc1 1.47%
CC(C)(C)OC(=O)N1CCC(c2c(C(=O)NCc3ccco3)cnn2-c2ccccc2Cl)CC1 -16.3%
Cc1nn(CCCC(=O)NCc2ccccc2)c(=O)c2cc3sccc3n12 -3.13%
CCCC(=O)n1nc(-c2cccnc2)nc1NCc1ccc(OC)cc1 -25.6%
COc1ccc(C(=O)Nc2cc3c(cc2N2CCCC2)n(C)c(=O)c(=O)n3C)cc1OC -5.4%
N/C(=N\N=C\c1ccc(Cl)cc1)N/N=C/c1ccc(Cl)cc1 8.65%
CC(=O)c1cc(-c2ccccc2)n(CCC(=O)NC(C)c2ccccc2)c1C (stereo not drawn) -16.8%
COC(=O)c1ccccc1NS(=O)(=O)c1ccc2c(c1)CCCN2C(C)=O 6.34%
CCOc1cc(C(=O)Nc2ccc(-c3nc4ccccc4s3)cc2Cl)cc(OCC)c1OCC -4.46%
Cc1cccc(C)c1NC(=O)Cn1c(=O)n(Cc2ccc3c(c2)OCO3)c(=O)c2oc3ccccc3c21 -18.6%
O=C(Nc1ccc(Br)cc1)C(Cc1ccccc1)NS(=O)(=O)c1cccc2nsnc12 (stereo not drawn) -19.7%
COc1ccccc1NC(=O)Cn1nc(-c2ccc(C)cc2)c2c(c1=O)CCCC2 29.6%
Fc1ccc(-n2ncc3c(NCCC4=CCCCC4)ncnc32)cc1 38.9%
COc1ccc(C(=O)Nc2cc(S(=O)(=O)c3ccc(Cl)cc3)c(O)c(C)c2C)cc1 12.6%
CCOc1ccc(OCC)c(NC(=O)C(NS(=O)(=O)c2cccs2)c2ccccc2)c1 (stereo not drawn) 20.8%
Cc1ccc(CNC(=O)c2c(C)oc3nc(C)nc(N4CCOCC4)c23)cc1 -5.43%
CC(C)(C)c1ccc(C(=O)NCC(c2cccs2)S(=O)(=O)c2cccs2)cc1 (stereo not drawn) -7.61%
CCc1ccc(-n2nc3cc(C)c(NC(=O)c4cc(OC)cc(OC)c4)cc3n2)cc1 -30.9%
Cc1ccc(NC(=O)CSc2nnc(-c3ccc(Br)cc3)o2)c(C)c1 -12.3%
COc1ccc(NC(=O)Cn2nnc3sc4c(c3c2=O)CCCC4)cc1 -11.6%
CCOC(=O)Cn1c(=O)oc2cc(S(=O)(=O)N3CCC(C(=O)OCC)CC3)ccc21 1.58%
Cc1ccc(OCC(=O)Nc2ccc3nc(SCCOc4ccccc4)sc3c2)cc1 18.6%
Cc1ccc(NC(=O)CN2C(=O)COc3ccc(S(=O)(=O)Nc4ccccc4)cc32)c(C)c1 -0.0904%
